Four compounds from PubChem BioAssay (NCI) can be followed below.

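Compound exposure: 48 hours, 5 concentrations, 96-well plates. GI50 = concentration required for 50% inhibition of growth.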 A number of entries come with more than one value. This list holds those alone. The source may hold further records. A record mostly stands for its own series of concentrations, not given here; some values may only mark the edge of a range.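 Definition used: TGI = concentration required for complete inhibition of growth.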 A value given as a limit tells only on which side of the number the result lay.

What all share (assay): inhibition of tumour cell growth, NCI panel, 48 h
For test [1], the system named is UACC-62 melanoma.
For test [2], the system named is OVCAR-3 ovarian.
The subject of test [3] is MCF7 breast.
Test [4] has as its system NCI-H522 lung.
Test [5] relates to RXF 393 renal.
Test [6] deals with SR leukemia.
Test [7] has as its system HOP-92 NSCLC.
In test [8] the test system is U251 CNS.
For test [9], the system named is ACHN renal.
For test [10], the system named is HOP-62 NSCLC.
Test [11] concerns SF-539 CNS.
The test system of test [12] is OVCAR-5 ovarian.
Test [13] relates to MDA-MB-231 breast.
Test [14] deals with RPMI-8226 leukemia.
Test [15] has as its system UO-31 renal.
The subject of test [16] is SK-MEL-2 melanoma.
For test [17], the system named is HL-60(TB) leukemia.
For test [18], the system named is SK-MEL-5 melanoma.
The test system of test [19] is SK-OV-3 ovarian.
Test [20] deals with T-47D breast.
Test [21] relates to UACC-257 melanoma.
Test [22] has as its system A498 renal.
Test [23] relates to COLO 205 colon.
For test [24], the system named is K-562 leukemia.
For test [25], the system named is XF 498 CNS.
The test system of test [26] is KM20L2 colon.
Test [27] has as its system EKVX NSCLC.
For test [28], the system named is SF-268 CNS.
Test [29] has as its system SNB-75 CNS.

As to `COc1cc2c(c(O)c1Cl)C(=O)c1c(O)cc(C[C@H](C)O)cc1[C@H]2[C@H]1c2cc(C[C@H](C)O)cc(O)c2C(=O)c2c1cc(OC)c(Cl)c2O`, the TGI is 5.65 µM and > 100 µM in test [1]; 4.45 µM and > 100 µM in [2]; 6.67 µM and > 100 µM in test [4]; 6.63 µM and 67.4 µM in test [5]; 5 µM and 76.4 µM in [7]; 7.96 µM and > 100 µM in test [8]. Also, the TGI was 5.09 µM and > 100 µM in test [9]; 8.29 µM and > 100 µM in test [10]; 2.65 µM and 48.3 µM in test [11]; 6.96 µM and > 100 µM in test [12]; 4.64 µM and 58.5 µM in test [13]; 6.84 µM and 79 µM in [15]. The TGI was 2.96 µM and 53.3 µM in test [16]; 4.91 µM and 55.2 µM in test [17]; 2.47 µM and 42.4 µM in test [18]; 5.11 µM and > 100 µM in test [19]; 4.81 µM and > 100 µM in test [20]; 4.93 µM and 71.6 µM in [21]. Moreover, the TGI is 5.88 µM and 70.8 µM in test [22]; 1.49 µM and 34.3 µM in test [23]. For the same compound, the GI50 is 337 nM and 16.2 µM in [3]; 380 nM and 15.3 µM in test [6]; 308 nM and 10.2 µM in test [14]; 292 nM and 14.5 µM in test [20]; 392 nM and 14.7 µM in test [23]; 333 nM and 28.3 µM in test [24].

In the case of `N#Cc1c(NCc2ccccc2)nc(NCc2ccccc2)c(C#N)c1-c1ccc(Cl)cc1`, the GI50 in test [16] was > 50 µM and 83.9 nM.

Turning to `C/C(=N\NC(=S)N1CCN(c2ccccn2)CC1)c1ccccn1`, the TGI was 76.6 nM and 2.99 µM in [1]; 6.82 nM and 18.6 µM in test [25]; 18.8 nM and 15.3 µM in test [26]; 0.889 nM and 11.8 µM in [27]; 91.6 nM and 2.1 µM in test [21]; 45.6 nM and 26.5 µM in [23].

With `CC1=C/C=C/C(=O)O[C@@H]([C@H](C)[C@H](O)[C@@H](C)NC(=O)C(C)C)[C@H](C)/C=C/C(C)=C/[C@H]2C=CCC[C@@]2(C)\C=C\1`, the GI50 is 7.66 µM and 325 nM in test [28]; 7.76 nM and 2.95 µM in test [29]; 57.6 nM and 776 nM in [5]; 3.89 µM and 214 nM in [21].
